Data published in PubChem BioAssay AID504332 (National Center for Advancing Translational Sciences (NCATS), 2011).
The campaign covered roughly 350,000 compounds. About 31,000 (8.9%) were called active. The shares of active, inactive and inconclusive entries below differ from those in the screen. Calls follow the shape of the dose curve; as a rule, active = well fitted inhibition curve with a large enough effect; inconclusive = small, poorly fitted or top-dose-only effect; inactive = no such curve, though single readings can be large or run the other way. Potencies beside an inconclusive call are fits to weak or partial responses and may not hold up.

Target: Histone-lysine N-methyltransferase EHMT2 (Homo sapiens) (UniProt Q96KQ7)
Test: qHTS Assay for Inhibitors of Histone Lysine Methyltransferase G9a; also: nearly all actives have a fitted effect of over 75% in size
Conditions: G9a H3K9 monomethylation, AlphaScreen, 2 h; activity, negative = inhibition: at 59 µM (top of the series) unless noted
Method in brief: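 Readings reflect AlphaScreen signal from monomethyl-H3K9 antibody detection. HMT at 20 nM; substrate b-H3K9 500 nM; cofactor SAM 20 uM; 2 h RT reaction; compounds tested as titrations in qHTS with 15 min preincubation.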
% is scaled to controls: 0 for no effect and ±100 for the full control effect; potency is read from the fitted curve at half-maximal effect; tags tell the direction and shape of the fitted curve.

Chain of UniProt Q96KQ7 (Q96KQ7 whole entry, looked up): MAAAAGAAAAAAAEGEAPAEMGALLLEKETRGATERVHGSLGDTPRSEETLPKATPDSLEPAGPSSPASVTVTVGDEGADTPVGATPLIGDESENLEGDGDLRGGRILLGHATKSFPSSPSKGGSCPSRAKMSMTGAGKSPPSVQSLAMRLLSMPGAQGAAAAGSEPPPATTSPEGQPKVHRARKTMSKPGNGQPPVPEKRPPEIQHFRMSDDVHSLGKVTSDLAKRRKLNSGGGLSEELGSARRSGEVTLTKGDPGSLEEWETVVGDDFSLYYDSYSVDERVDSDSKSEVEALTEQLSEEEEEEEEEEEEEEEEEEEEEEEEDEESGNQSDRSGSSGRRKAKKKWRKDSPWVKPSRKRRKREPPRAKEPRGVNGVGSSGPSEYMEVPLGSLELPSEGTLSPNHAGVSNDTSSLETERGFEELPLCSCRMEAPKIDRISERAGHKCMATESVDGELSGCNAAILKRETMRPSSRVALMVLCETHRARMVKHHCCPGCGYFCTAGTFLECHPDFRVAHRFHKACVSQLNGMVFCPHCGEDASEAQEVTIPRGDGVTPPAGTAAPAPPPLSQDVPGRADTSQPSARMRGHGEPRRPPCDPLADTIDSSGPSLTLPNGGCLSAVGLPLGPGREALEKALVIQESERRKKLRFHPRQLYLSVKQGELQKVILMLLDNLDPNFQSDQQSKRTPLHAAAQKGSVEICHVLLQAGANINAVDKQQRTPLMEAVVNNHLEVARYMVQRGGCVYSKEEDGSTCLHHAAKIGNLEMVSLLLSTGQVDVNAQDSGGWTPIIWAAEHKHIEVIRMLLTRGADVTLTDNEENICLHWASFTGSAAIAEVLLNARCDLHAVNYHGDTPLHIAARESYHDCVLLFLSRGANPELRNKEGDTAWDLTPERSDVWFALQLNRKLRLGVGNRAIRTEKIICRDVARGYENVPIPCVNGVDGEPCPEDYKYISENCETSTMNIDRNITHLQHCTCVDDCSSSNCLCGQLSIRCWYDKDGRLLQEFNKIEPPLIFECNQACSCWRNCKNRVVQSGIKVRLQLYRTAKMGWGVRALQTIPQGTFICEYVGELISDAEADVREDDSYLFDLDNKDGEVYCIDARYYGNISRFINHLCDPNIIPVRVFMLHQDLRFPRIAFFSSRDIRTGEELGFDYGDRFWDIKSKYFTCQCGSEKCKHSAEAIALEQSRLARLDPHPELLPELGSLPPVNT

SMILES	Potency	activity, negative = inhibition
Cc1ccccc1C1C(C#N)=C2N=C(N)c3c(sc4c3CCCCC4)N2C2=C1C(=O)CCC2 (stereo unspecified)	inconclusive: 7.08 µM [inhibitor, single point]	–
CC(=O)Nc1ccc(C(=O)N2CCN(C(=O)c3ccco3)CC2)cc1	inconclusive: 2.82 µM [inhibitor, partial curve, poor fit]	–
COc1ccc(-c2ccc(/C=N/NC(=O)c3cccnc3)o2)c([N+](=O)[O-])c1	inactive	–
CC(=O)OCC1(C)CN(c2ccccc2)N(C(=O)c2ccc(C(C)(C)C)cc2)C1=O (stereo unspecified)	active: 39.8 µM	–
Cc1ccc(C(=O)OCC(=O)Nc2cccc(S(=O)(=O)NC3=NCCCCC3)c2)c(C)c1	inconclusive: 89.1 µM [inhibitor, single point]	–
CCOCCCNC(=O)C(NC(=O)c1ccccn1)c1ccc(C)cc1 (stereo unspecified)	inconclusive: 39.8 µM [inhibitor, single point]	–
NNC(=O)/C(=N/Nc1ccccc1)S(=O)(=O)c1ccc(Cl)cc1	inconclusive: 89.1 µM [inhibitor, single point]	–
O=C(NC(=S)N1CCc2ccccc21)c1ccccc1	active: 44.7 µM	–
CCN(C1CCS(=O)(=O)C1)S(=O)(=O)c1ccc(Cl)s1 (stereo unspecified)	inconclusive: 89.1 µM [inhibitor, partial curve, poor fit]	–
O=C(C1=C[C@H](C2CCCCC2)C[C@H](OCc2ccc(CO)cc2)O1)N1CCN(Cc2ccc3c(c2)OCO3)CC1	–	inconclusive: -75.9% [inhibitor]
O=C(CCC1CCCN(C(=O)C2(c3ccccc3)CC2)C1)N1CCN(c2ccccn2)CC1 (stereo unspecified)	inactive	–
O=C(c1ccc(-c2cccc(C(F)(F)F)c2)o1)N1CCN(c2ccccc2O)CC1	inconclusive: 56.2 µM [inhibitor, partial curve, poor fit]	–
CC(=O)Nc1sc2c(c1C(c1ccc(F)cc1)N1CCOCC1)CCCC2 (stereo unspecified)	inconclusive: 25.1 µM [inhibitor, single point]	–
Cc1ccc(NC(=S)c2nc3ccccc3s2)cc1	active: 22.4 µM	–
CCCC(=O)NC(=S)Nc1cccc2c(O)cccc12	inconclusive: 50.1 µM [inhibitor, partial curve]	–
CCN(CC(=O)Nc1ccc(NC(C)=O)cc1)CC(=O)Nc1ccccc1C(=O)c1ccccc1	inconclusive: 50.1 µM [inhibitor, partial curve, poor fit]	–
O=[N+]([O-])c1ccc(N2CCN(c3ccccc3O)CC2)c(Cl)c1	inconclusive: 8.91 µM [inhibitor, full curve, poor fit]	–
CCN(CC)S(=O)(=O)c1ccc(NC(=O)C2CCCO2)cc1 (stereo unspecified)	–	inconclusive: -63.5% [inhibitor]
O=C(CN1CCCCC1)Nc1ccccc1NC(=O)CN1CCCCC1	inactive	–
COc1cccc(OC)c1C(=O)Nc1cccc(C(C)=O)c1	inactive	–
O=C(NCCN1CCOCC1)c1c(O)nc2ccccn2c1=O	inconclusive: 50.1 µM [inhibitor, partial curve, poor fit]	–
COc1ccc(NCc2nnc(SCc3ccc(Cl)cc3)n2-c2ccccc2)cc1	inconclusive: 28.2 µM [inhibitor, single point]	–

SMILES	Potency	activity, negative = inhibition
O=C(Nc1ccc(F)cc1)c1cccnn1	inconclusive: 0.251 µM [inhibitor, full curve]	–
COC(=O)c1ccc(NC(=O)CN(C)S(=O)(=O)c2ccc3c(c2)CCCC(=O)N3)cc1	inactive	–
COc1ccc(Cl)cc1NC(=O)COc1cccc2c(=O)n(C)ccc12	inconclusive: 3.16 µM [inhibitor, single point]	–
CCCCCN(C(=O)NC(=O)Nc1ccccc1OC)S(C)(=O)=O	inconclusive: 17.8 µM [inhibitor, single point]	–
O=[N+]([O-])c1cc(Cl)cc(C2=NCCN2)c1	active: 35.5 µM	–
Cc1cc2c(cc1S(=O)(=O)Nc1cccc(C)c1C)OCC(=O)N2	inactive	–
COc1ccccc1NC(=O)Cc1noc(CSc2nnc(N)s2)n1	inconclusive: 12.6 µM [inhibitor, single point]	–
O=C(COC(=O)c1cc(S(=O)(=O)N2CCOCC2)ccc1F)Nc1c(Cl)cccc1C(F)(F)F	–	inactive: -20.6% [at 0.501 µM]
CS(=O)(=O)N(CC(=O)NC1CCCCC1)c1cccc(Cl)c1	inconclusive: 50.1 µM [inhibitor, partial curve, poor fit]	–
Cc1ccc(SCC(=O)NC(=O)NC(C)C)c(C)c1	inconclusive: 50.1 µM [inhibitor, partial curve, poor fit]	–
COc1ccc(C(=O)NC(=S)N2CCC(C)CC2)cc1	active: 15.8 µM	–
COc1ccc(CNC(=O)COC(=O)c2cc(-c3ccc(Cl)s3)nc3ccccc23)cc1	inconclusive: 70.8 µM [inhibitor, single point]	–
CCC(Oc1ccccc1)C(=O)Nc1ccc(-c2nnc(-c3ccco3)o2)cc1 (stereo unspecified)	inconclusive: 35.5 µM [inhibitor, partial curve, poor fit]	–
COc1ccc(-c2nc3ccccc3c(=O)n2O)cc1	inconclusive: 79.4 µM [inhibitor, single point]	–
COc1ccc(-n2cc(CNCCCN3CCCC3=O)c(-c3ccccc3Cl)n2)cc1	inconclusive: 79.4 µM [inhibitor, partial curve, poor fit]	–
COc1ccc(/C(C)=N/Nc2cc(C(F)(F)F)ccc2Cl)c(OC)c1	inconclusive: 89.1 µM [inhibitor, single point]	–
CCCN(C(=O)c1c(-c2ccccc2)noc1C)c1c(N)n(Cc2ccccc2)c(=O)[nH]c1=O	–	inactive: -21.1% [at 0.0925 µM]
OCC1(CO)COC(C(Cl)(Cl)Cl)OC1	–	inactive: -8.53% [at 12.7 µM]
COC(=O)c1cc(S(=O)(=O)N2CCC(c3cc(OC)ccc3OC)C2)c[nH]1 (stereo unspecified)	inconclusive: 89.1 µM [inhibitor, single point]	–
CN(C)S(=O)(=O)c1cccc(NC(=O)COc2ccccc2C(=O)NCc2ccccc2)c1	inconclusive: 50.1 µM [inhibitor, partial curve]	–
Cc1nc(N)sc1-c1csc(Nc2ccccc2)n1	inconclusive: 12.6 µM [inhibitor, single point]	–
Cc1ccc(NC(=O)CSCC(=O)N2CCCc3ccccc32)cc1	active: 44.7 µM	–

SMILES	Potency	activity, negative = inhibition
CCN(CC)C(=O)c1sc2c(c1C)c(=O)n(Cc1ccccc1)c(=O)n2Cc1c(C)cc(C)cc1C	inactive	–
CCOc1ccc(/C=C/C(=O)c2c(O)cc(C)oc2=O)cc1	inconclusive: 50.1 µM [inhibitor, partial curve, poor fit]	–
C/C(=N\NC(=S)NC1CCCCC1)c1c(F)cccc1F	inconclusive: 79.4 µM [inhibitor, single point]	–
CCOC(=O)c1cc(S(=O)(=O)N(C)c2ccccc2)[nH]n1	inconclusive: 25.1 µM [inhibitor, single point]	–
Cc1ccc2nc(N)[nH]c(=O)c2c1Sc1ccncc1	inconclusive: 0.316 µM [inhibitor, full curve, poor fit]	–
COc1ccc(NC(=O)Cc2coc3cc(C)c(C(C)C)cc23)cc1S(=O)(=O)N1CCOCC1	active: 10 µM	–
CCOc1ccc(S(=O)(=O)Nc2ccc3c(c2)CCCN3S(=O)(=O)c2ccc(C)cc2)cc1	inconclusive: 3.55 µM [inhibitor, partial curve, poor fit]	–
COc1ccccc1N1CCN(/N=C/c2ccc(OC)c(OC)c2OC)CC1	active: 35.5 µM	–
Fc1cccc(Cl)c1/C=N/n1c(-c2cccnc2)n[nH]c1=S	inconclusive: 3.55 µM [inhibitor, full curve, poor fit]	–
COc1ccc2oc(C(=O)OCC(=O)N(Cc3ccccc3)C(C)C)c(C)c2c1	inconclusive: 79.4 µM [inhibitor, partial curve, poor fit]	–
Cc1ccc(NS(=O)(=O)c2ccc3[nH]c4c(c3c2)CCCCCC4)cc1C	inconclusive: 25.1 µM [inhibitor, single point]	–
CC(C)=CCc1c(C)nc2ccccc2c1C(=O)O	inconclusive: 79.4 µM [inhibitor, single point]	–
CCCCN(CCCNC(=O)C1CCN(S(=O)(=O)N2CCOCC2)CC1)c1ccccc1	active: 39.8 µM	–
COc1cccc(/C=N/NC(=O)c2ccc([N+](=O)[O-])cc2Cl)c1O	inconclusive: 20 µM [inhibitor, single point]	–
O=C(O)C1=C[C@@H](C2CC2)C[C@@H](OCc2ccc(CO)cc2)O1	–	inconclusive: -78.6% [inhibitor]
O=C(COc1ccccc1)NNC1=NS(=O)(=O)c2ccccc21	active: 44.7 µM	–
NC(=Nc1ccc(N)cc1)C(N)=Nc1ccc(N)cc1	inconclusive: 79.4 µM [inhibitor, single point]	–
CN(C)c1nc(NC(C)(C)C)nc(SCC(=O)Nc2ccccc2)n1	inconclusive: 10 µM [inhibitor, single point]	–
Cc1cnc(NC(=O)c2ccc(OCC3CCCO3)cc2)s1 (stereo unspecified)	inconclusive: 28.2 µM [inhibitor, partial curve]	–
Cn1c(C(=O)NCc2ccccc2F)cc2cc(S(=O)(=O)N3CCCCC3)ccc21	inconclusive: 39.8 µM [inhibitor, single point]	–
Cc1ccc(/C=C2\CCC3=C2OC(N)=C(C#N)C3c2ccc(C)cc2)cc1 (stereo unspecified)	inconclusive: 39.8 µM [inhibitor, single point]	–
O=C(Nc1cccc(-c2cccc(F)c2)c1)C1CCN(Cc2ccc(CO)o2)CC1	inconclusive: 50.1 µM [inhibitor, partial curve, poor fit]	–
